Hit rate of the full screen: of about 310,000 compounds, about 2,200 (0.71%) showed an effect of 50% or more. The effect is printed as a negative number. Some of the results follow.
target: human ether-à-go-go-related gene (hERG) potassium channel (human, UniProt Q12809); test: primary screen, population patch clamp on CHO cells stably expressing hERG
Sequence (Q12809 whole entry, looked up): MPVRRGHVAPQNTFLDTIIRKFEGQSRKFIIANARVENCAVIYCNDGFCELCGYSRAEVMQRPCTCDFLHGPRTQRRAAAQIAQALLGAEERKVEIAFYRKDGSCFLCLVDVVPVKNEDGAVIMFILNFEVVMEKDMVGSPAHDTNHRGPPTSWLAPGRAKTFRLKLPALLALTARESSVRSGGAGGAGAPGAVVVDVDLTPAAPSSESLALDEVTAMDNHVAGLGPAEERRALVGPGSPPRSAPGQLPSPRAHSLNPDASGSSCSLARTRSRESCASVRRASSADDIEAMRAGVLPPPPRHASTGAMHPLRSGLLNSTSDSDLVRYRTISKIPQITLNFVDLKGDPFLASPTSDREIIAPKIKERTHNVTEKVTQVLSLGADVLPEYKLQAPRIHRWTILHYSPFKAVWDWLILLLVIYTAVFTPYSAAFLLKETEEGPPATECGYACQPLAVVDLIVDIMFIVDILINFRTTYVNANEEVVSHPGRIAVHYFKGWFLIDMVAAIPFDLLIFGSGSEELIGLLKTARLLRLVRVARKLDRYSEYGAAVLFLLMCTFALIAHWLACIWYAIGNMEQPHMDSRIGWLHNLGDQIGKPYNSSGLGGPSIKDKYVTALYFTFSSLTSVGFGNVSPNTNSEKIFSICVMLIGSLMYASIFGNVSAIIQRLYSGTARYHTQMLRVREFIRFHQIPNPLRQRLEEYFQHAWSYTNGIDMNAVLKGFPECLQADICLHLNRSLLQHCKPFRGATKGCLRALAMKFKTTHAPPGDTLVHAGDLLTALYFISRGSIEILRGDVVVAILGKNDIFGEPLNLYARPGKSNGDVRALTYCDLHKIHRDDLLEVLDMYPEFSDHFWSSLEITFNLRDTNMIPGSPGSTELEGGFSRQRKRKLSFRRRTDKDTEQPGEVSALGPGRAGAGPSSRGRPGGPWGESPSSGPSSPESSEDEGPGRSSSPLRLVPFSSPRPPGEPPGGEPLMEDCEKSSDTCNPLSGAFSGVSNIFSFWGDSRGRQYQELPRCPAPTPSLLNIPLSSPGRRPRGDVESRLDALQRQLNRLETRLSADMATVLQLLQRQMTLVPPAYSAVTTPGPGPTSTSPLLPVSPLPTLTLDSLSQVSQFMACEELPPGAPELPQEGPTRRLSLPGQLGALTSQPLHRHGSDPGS

| Compound | hERG current change (%, negative = inhibition) at 1uM [%] |
| --- | --- |
| COc1ccccc1/C=C/C(=O)Nc1ccc(S(=O)(=O)Nc2cc(C)on2)cc1 | 3.96 |
| C/C=C(\C)CN1CCC(n2nccc2NC(=O)c2ccc3c(c2)OCO3)CC1 | -4.59 |
| Cc1ccc(CN2C(=O)C(C)Nc3ncnc(N4CCOCC4)c32)cc1.O=C(O)C(F)(F)F (stereo not shown) | 15.6 |
| O=c1[nH]c2ccc(NC(=S)NC3CCCCC3)cc2[nH]1 | 11.6 |
| Cc1ccc(NC(=O)Nc2c(C)n(C)n(-c3ccccc3)c2=O)cc1 | -0.363 |
| CCOC(=O)C1CCCN(c2c(NCCc3cccc(C)c3)c(=O)c2=O)C1 (stereo not shown) | 10.4 |
| Cc1ccc2c(c1)CC1(CN2C)C(=O)NC(=O)N(c2cccc(C)c2C)C1=O (stereo not shown) | -12.9 |
| C/C(=N/Oc1nc(C)cc(C)n1)c1ccccc1 | 5.77 |
| CC(=O)NNc1cc(N2CCOCC2)nc(N2CCOCC2)n1.Cl | 15.4 |
| CCO[C@H]1OC(C(=O)NC2CC2)=C[C@@H](c2ccc(Br)cc2)[C@@H]1CCCO | -7.47 |
| COc1ccc(-c2cnnc(N/N=C/c3ccc(O)cc3)n2)cc1 | 11.4 |
| C=CCNS(=O)(=O)c1ccc2c(c1)n(C)c(=O)n2C | 9.48 |
| CCOCCCNC(=O)CN1C(=O)/C(=C\c2ccc(C)cc2)Sc2ccccc21 | 0.457 |
| O=C(CNS(=O)(=O)c1cccc2nsnc12)NCc1ccc(Cl)cc1 | 7.26 |
| Cc1ccc(C(=O)Nc2ccccc2N2CCOCC2)cc1S(=O)(=O)N1CCOCC1 | -6.31 |
| COc1cc(SC)ccc1C(=O)NC(C)C | 20.7 |
| O=C(N/N=C/c1ccc([N+](=O)[O-])s1)c1ccccc1Br | 16.9 |
| COc1ccc(S(=O)(=O)N2CCN(C(=O)CCC3CCCC3)CC2)cc1 | -1.99 |
| Cc1cccc(NCN2C(=O)c3ccccc3C2=O)c1 | 7.81 |
| CCC(C)[C@H](NC(=O)NC1CC1)C(=O)O (stereo partly shown) | 5.22 |
| C=CCSc1nc2c(c(=O)[nH]c(=O)n2C)n1C/C=C(/C)Cl | 2.37 |
| COc1ccc([N+](=O)[O-])cc1N/C(=N/S(=O)(=O)c1ccccc1)c1ccccc1 | -7.1 |

| Compound | hERG current change (%, negative = inhibition) at 1uM [%] |
| --- | --- |
| COc1ccccc1CCC(=O)N1CCN(S(=O)(=O)c2cccc(F)c2)CC1 | -0.0623 |
| Cc1cccc(-n2c(C)cc(C=C3C(=O)c4ccccc4C3=O)c2C)c1 | 22.3 |
| CCCCNC(=O)c1sc(=S)n2c1[nH]c(=O)c1ccc(C(=O)NCCc3ccc(OC)c(OC)c3)cc12 | 6.01 |
| Cc1ccc(N2CCN(C(=O)C3CCC(=O)N(Cc4ccc(Cl)cc4)C3)CC2)c(C)c1 (stereo not shown) | 6.1 |
| COC(=O)c1sc(N2C(=O)C(O)=C(C(=O)c3ccc(C)o3)C2c2cc(OC)ccc2OC)nc1C (stereo not shown) | 14.4 |
| O=C(CCCn1c(=S)[nH]c2cc3c(cc2c1=O)OCO3)NCc1ccco1 | 8.37 |
| Cc1ccc(NC(=O)N2CCCC2C(=O)NCCC2=CCCCC2)cc1 (stereo not shown) | -1.7 |
| NC(=O)CC(NC(=O)c1ccccc1)c1ccc(NC2CCCCC2)c([N+](=O)[O-])c1 (stereo not shown) | 12.5 |
| COc1ccc(S(=O)(=O)N2CCOCC2)cc1C(=O)Nc1ccon1 | 9.68 |
| Cc1nnc2c(NC3CCCCC3)nc3ccccc3n12 | 11.4 |
| CCOc1ccc(N(CC(=O)N2CCCCCC2)S(=O)(=O)c2ccc(C)cc2)cc1 | 3.03 |
| COc1ccccc1CN1CCN(Cc2ccc(Cl)cc2)CC1.O=C(O)C(=O)O | -10.8 |
| COc1ccc(CNC(=O)Cn2nc(-c3ccc4c(c3)OCCO4)ccc2=O)cc1 | 2.61 |
| O=C(NCc1ccco1)c1ccc(COc2cc(Cl)ccc2Cl)cc1 | 4.93 |
| O=C(CN1C(=O)NC2(CCCCC2)C1=O)N1CCN(S(=O)(=O)c2cccc(F)c2)CC1 | -33.4 |
| COC(=O)c1cn(NC(=O)C2CCCCC2)c(=O)c2ccccc12 | 4.13 |
| Cc1ccc(CSc2nnc(SCC(=O)N/N=C/c3ccc(C(=O)O)cc3)s2)cc1 | 6.88 |
| O=C(COC(=O)Cn1cnc2ccccc2c1=O)NCC12CC3CC(CC(C3)C1)C2 | 6.05 |
| NC(=O)CC(NC(=O)Cc1ccc(Cl)cc1)c1ccc(N2CCN(c3ccccn3)CC2)c([N+](=O)[O-])c1 (stereo not shown) | 19.5 |
| CC1=NN(C(=O)c2csc(C)c2)C(O)(C(F)(F)F)C1 (stereo not shown) | 11.5 |
| O=C(Cn1c(=O)n(CCCCC(=O)NC2CCCC2)c(=O)c2ccccc21)NCCC1=CCCCC1 | 6.47 |
